The campaign covered roughly 130,000 compounds. About 1,200 (0.92%) were called active. Inconclusive means that the source gave no clear call. Such entries were picked first, then a sample of the others. Calls come from the whole dose curve; as a rule, active = well fitted cell-killing curve with a large enough effect; inconclusive = small, poorly fitted or top-dose-only effect; inactive = no such curve, though single readings can be large or run the other way. Where the call is inconclusive, the potency comes from a doubtful curve fit.
Experiment: qHTS Screen for Compounds that Selectively Target Cancer Cells with p53 Mutations: Cytotoxicity of p53ts Cells at the Permissive Temperature; note: nearly all actives have a fitted effect of over 55% in size;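 for activity change, negative = cytotoxicity: 0% = DMSO and -100% = full killing by reference compound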
Details: H1299-p53A138V at 32C, ATP luminescence viability, 24 h; activity change, negative = cytotoxicity: at 46.1 µM (top of the series)
How it was run: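 Viability by ATPlite luminescence after 24 h compound treatment (up to 46 uM) at the permissive 32C. Cells are H1299 carrying p53 A138V. Scale runs from DMSO basal to 100 uM tamoxifen as full kill; AC50 from Hill fits.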
Potency is the fitted concentration of half-maximal effect; tags give direction and shape of the fitted curve.

Row | Compound | Potency | activity change, negative = cytotoxicity
1 | Fc1ccc2c(c1)[C@H]1OCC[C@H]1[C@@H](c1ccco1)N2 | inconclusive: 31.6 µM [cytotoxic, partial curve] | –
2 | CC(C)c1ccc(OC(=O)c2cc(-c3ccc4c(c3)OCCO4)on2)cc1 | active: 12.6 µM | –
3 | C[C@@H](C(=O)NCc1nc2ccccc2[nH]1)[C@@H]1C[C@@]1(C)[C@@H](NC(=O)OCc1ccccc1)c1ccccc1 | inactive | –
4 | Cc1ccc2nc(-c3ccc(Cl)c(NC(=O)c4cccnc4)c3)oc2c1 | inconclusive: 2.51 µM [cytotoxic, full curve, poor fit] | –
5 | CC(C)(C)N1C(=O)c2ccc(C(=O)Nc3nccs3)cc2C1=O | inconclusive: 12.6 µM [cytotoxic, partial curve] | –
6 | Nc1nnc(SCc2ccc(Cl)cc2)s1 | inactive | –
7 | O=C(C1CC1)N1CCN(c2nc3ccccc3s2)CC1 | inconclusive: 10 µM [cytotoxic, partial curve] | –
8 | COc1cc(/C=C\C(=O)N2CCC=CC2=O)cc(OC)c1OC | active: 6.31 µM | –
9 | O=C(COc1ncnc2ccccc12)c1ccc2c(c1)OCCO2 | inconclusive: 31.6 µM [cytotoxic, single point] | –
10 | O=C(CSc1nnc(Cc2cccs2)n1-c1ccccc1)NC1CCCCC1 | inconclusive: 31.6 µM [cytotoxic, single point] | –
11 | COc1c(Cl)cc(C(=O)Nc2cccc(-c3nc4ccccc4[nH]3)c2)cc1Cl | inconclusive: 31.6 µM [cytotoxic, single point] | –
12 | CCOC(=O)c1c(Nc2cccc(O)c2)nnc(-c2ccccc2)c1-c1ccccc1 | inconclusive: 31.6 µM [cytotoxic, single point] | –
13 | Cc1ccc2[nH]c(=O)c(C(c3nnnn3C3CCCC3)N(Cc3cccnc3)Cc3ccco3)cc2c1 (stereo not drawn) | inconclusive: 20 µM [cytotoxic, single point] | –
14 | O=C(COc1ccc2c(c1)OCO2)Nc1ccc2c(c1)oc1ccccc12 | inconclusive: 10 µM [cytotoxic, partial curve] | –
15 | COC(=O)c1cc2oc3ccccc3c2n1Cc1nc(-c2cccc(Cl)c2)oc1C | inactive | –
16 | COc1cccc(CSc2nc3ccccc3[nH]2)c1 | inconclusive: 15.8 µM [cytotoxic, single point] | –
17 | O=C(Nc1ccccn1)c1cc2ccccc2o1 | active: 4.47 µM | –
18 | COc1cccc(-c2ccc3c(N)c(C(=O)Nc4ccc(Cl)cc4F)sc3n2)c1 | inconclusive: 31.6 µM [cytotoxic, single point] | –
19 | Cc1ccc(C(=O)/C=C2\NCCNC2=O)cc1 | active: 12.6 µM | –
20 | CCOc1ccc(C(=O)Nc2cccc(NC(=O)c3ccc(C(C)(C)C)cc3)c2)cc1Br | inconclusive: 25.1 µM [cytotoxic, single point] | –
21 | O=C(CSc1nnnn1C1CCCC1)c1ccc2c(c1)OCCO2 | inconclusive: 20 µM [cytotoxic, single point] | –
22 | Cc1sc(NC(=O)c2ccco2)nc1-c1ccc2c(c1)CC(C)N2C(=O)C1CC1 (stereo not drawn) | inconclusive: 31.6 µM [cytotoxic, single point] | –
23 | Cc1csc(NC(=O)c2cc3c(s2)CCC3)n1 | inconclusive: 3.98 µM [cytotoxic, full curve] | –
24 | COc1ccc(Oc2ncc3ncc(=O)n(-c4ccc(OC)cc4)c3n2)cc1 | inactive | –
25 | Cc1ccc(C)c(C2=CSC3=NCCN23)c1 | inconclusive: 0.251 µM [cytotoxic, full curve, poor fit] | –

Row | Compound | Potency | activity change, negative = cytotoxicity
26 | Cc1ccc(-c2nc(-c3ccccc3)no2)c(Cl)c1 | active: 5.01 µM | –
27 | COc1ccc2cc(-c3nc(Cl)c4c5c(sc4n3)CC(C)CC5)c(=O)oc2c1 (stereo not drawn) | inactive | –
28 | O=C1OCCC1Sc1nnc(-c2ccc(Br)cc2)o1 (stereo not drawn) | inconclusive: 15.8 µM [cytotoxic, single point] | –
29 | Cc1cc2nc(-c3cccc(NC(=O)C(C)C)c3C)oc2cc1C | inconclusive: 2.51 µM [cytotoxic, full curve] | –
30 | O=C(OC1CCOC1=O)c1ccc(-c2nc3ccccc3s2)s1 (stereo not drawn) | inconclusive: 12.6 µM [cytotoxic, partial curve] | –
31 | COCCCn1c(-c2ccco2)nc2ccccc2c1=O | inactive | –
32 | CN(C)c1ccc(-c2cc(NCc3ccccc3)ncn2)cc1 | inconclusive: 3.98 µM [cytotoxic, full curve] | –
33 | COc1cccc(C(=O)NC2=NCCS2)c1 | active: 15.8 µM | –
34 | Cc1nc2cc(CO)ccc2n1C | inactive | –
35 | CCCCN(CC)C(=O)CSc1c2c(nc3ccc(Cl)cc13)CCCC2 | inconclusive: 28.2 µM [cytotoxic, single point] | –
36 | CCc1ccc(-n2c(SCc3ccccc3Cl)nc3[nH]ncc3c2=O)cc1 | inconclusive: 31.6 µM [cytotoxic, single point] | –
37 | Cc1cccc(OCC(=O)Nc2ccc(-c3nc4ccccc4o3)cc2)c1C | inconclusive: 15.8 µM [cytotoxic, single point] | –
38 | Cc1[nH]n(-c2ccc(Cl)cc2)c(=O)c1/C=N/n1c(C)nc2ccccc2c1=O | inconclusive: 11.2 µM [cytotoxic, partial curve] | –
39 | CCn1c(=N)n(CCOc2ccc(Br)cc2)c2ccccc21 | inconclusive: 14.1 µM [cytotoxic, single point] | –
40 | CC(C)CO/N=C1/C[C@@H](O)[C@@H](O)[C@@H]2[C@H]3C(=O)N(c4ccc(F)cc4F)C(=O)[C@@H]3CC[C@@H]12 | – | inactive: 6.03% [at 9.22 µM]
41 | Cc1cccn2c(=O)c(C(=O)NCCc3ccccc3)cnc12 | inconclusive: 15.8 µM [cytotoxic, partial curve] | –
42 | COc1ccc(CNCCC(c2ccc3c(c2)OCO3)c2ccccc2OC)cc1 (stereo not drawn) | inconclusive: 31.6 µM [cytotoxic, single point] | –
43 | CC/C(C)=N/O | – | inactive: 0.592% [at 1.84 µM]
44 | Cc1coc2cc3oc(=O)c(CC(=O)NCc4cccc(Cl)c4)c(C)c3cc12 | inactive | –
45 | COc1ccc(NC(=O)CSc2nnc(NC(=O)NC3CCCCC3)s2)cc1OC | active: 10 µM | –
46 | Cc1ccccc1C(=O)Nc1c(C)nc2ccccn2c1=O | inactive | –
47 | Cc1[nH]n(-c2ccccc2)c(=O)c1/C=N/c1ccccn1 | inconclusive: 12.6 µM [cytotoxic, partial curve] | –
48 | Cc1ccc2nc3sc(C(=O)N4CCOCC4)c(N)c3cc2c1 | active: 6.31 µM | –
49 | COc1ccccc1NC(=O)c1oc2ccccc2c1NC(=O)Cc1cccs1 | inconclusive: 15.8 µM [cytotoxic, single point] | –
50 | COc1ccccc1-c1nnc(C2CCN(S(=O)(=O)c3ccc(CC(C)C)cc3)CC2)o1 | inactive | –

Row | Compound | Potency | activity change, negative = cytotoxicity
51 | Nc1ccc2oc(-c3ccccc3Br)nc2c1 | active: 12.6 µM | –
52 | CCOc1ccc(NC(=O)c2ccccc2CO)cc1 | inconclusive: 12.6 µM [cytotoxic, partial curve] | –
53 | CC(=O)N1CCN(c2ccc(NC(=O)c3ccc(C(C)(C)C)cc3)cc2)CC1 | inconclusive: 31.6 µM [cytotoxic, single point] | –
54 | Cc1c(O)ccc2c3c(c(=O)oc12)CCCC3 | inactive | –
55 | CCn1nc(C(=O)OCC(=O)c2cc(C)n(Cc3cccs3)c2C)c2ccccc2c1=O | inconclusive: 10 µM [cytotoxic, partial curve] | –
56 | CN1CCc2cccc3c2[C@H]1Cc1ccc(O)c(O)c1-3 | active: 25.1 µM | –
57 | CCc1ccc2ncc(S(=O)(=O)c3ccc(C)c(C)c3)c(N3CCCC3)c2c1 | inconclusive: 0.316 µM [cytotoxic, partial curve, poor fit] | –
58 | Cc1nc2cc(NCc3nc4ccccc4n3Cc3ccccc3)ccc2n1C | active: 3.98 µM | –
59 | Cc1ccc(-n2nc(C)c(C(=O)NCCCN3CCN(c4cccc(Cl)c4)CC3)c2-n2cccc2)cc1 | inconclusive: 12.6 µM [cytotoxic, single point] | –
60 | Cc1cc(NS(=O)(=O)c2cn(C)c(C)n2)ccc1Br | inactive | –
61 | CCOC(=O)c1c(C)n(C)c2ccc(OCC(O)Cn3nc(C)c(Br)c3C)cc12 (stereo not drawn) | inconclusive: 1.41 µM [cytotoxic, partial curve, poor fit] | –
62 | CCCN1CCN(CCCNC(=O)c2cc3c(s2)-c2ccccc2OC3)CC1 | inactive | –
63 | O=C(Cn1c(SCC(=O)Nc2ccc(F)cc2)nc2ccccc21)NCc1ccc(Cl)cc1 | inconclusive: 31.6 µM [cytotoxic, single point] | –
64 | CCCC(=O)Nc1ccc(NC(=O)c2ccccn2)cn1 | inconclusive: 10 µM [cytotoxic, partial curve] | –
65 | CCOC(=O)c1ccc(NC(=O)CN2C(=O)c3cccnc3Sc3ccccc32)cc1 | inactive | –
66 | O=C1Nc2ccccc2/C1=N\c1sc2c(c1C(=O)Nc1ccccc1)CCCC2 | inactive | –
67 | CCOC(=O)CS(=O)(=O)c1nc(-c2ccccc2)cc(C(F)(F)F)n1 | inconclusive: 31.6 µM [cytotoxic, single point] | –
68 | c1ccc(-c2cn3c4c(sc3n2)CCCC4)cc1 | active: 1 µM | –
69 | CCC(=O)Nc1cccc(OCc2cc(=O)n3cc(C)ccc3n2)c1 | inconclusive: 12.6 µM [cytotoxic, single point] | –
70 | COc1cc(OC)c(N(C)C(=O)CSc2c3c(nc4ccc(Cl)cc24)CCCC3)cc1Cl | inconclusive: 31.6 µM [cytotoxic, single point] | –
71 | COc1ccc(C(=O)Nc2ccc3oc(-c4cc(Cl)ccc4Cl)nc3c2)cc1Br | inconclusive: 10 µM [cytotoxic, partial curve] | –
72 | c1cnc2c(c1)ccc1cccnc12 | inconclusive: 10 µM [cytotoxic, partial curve] | –
73 | Cc1ccn2cc(C(=O)Nc3ccc4c(c3)OCCO4)nc2c1 | active: 12.6 µM | –

Reference: PubChem BioAssay AID924 (National Center for Advancing Translational Sciences (NCATS), 2007)
